Measured values reported in patent US20260200947A1, “FUSED CYCLIC COMPOUNDS AND USE THEREOF” (Jacobio Pharmaceuticals Co., Ltd., priority 2022, published 2026).

Tests used:
[1] = system: AsPC-1 cells (K-Ras G12D)

For `C#Cc1c(F)ccc2cc(N)cc(-c3nc4c5c(nc(OC[C@@]67CCCN6C[C@H](F)C7)nc5c3F)N3CC(F)(F)COCC3N4C)c12` (some centres unmarked) [Compound 55], which IC50 [1] is on record?
Its IC50 is 56.1 nM.

What about the IC50 (SW620 cells (K-Ras G12V)) of the same compound?
Its IC50 is 2.67 nM.
